Test results published in the supplement of paper PMC3334620.
In all, about 33,000 sequences were measured (“E-score (-0.5 to 0.5)”: median about -0.032, highest 2% from about 0.36 on). This is one part of the list.

Target: T1, Sko1 (UniProt Q02100)
T1 sequence: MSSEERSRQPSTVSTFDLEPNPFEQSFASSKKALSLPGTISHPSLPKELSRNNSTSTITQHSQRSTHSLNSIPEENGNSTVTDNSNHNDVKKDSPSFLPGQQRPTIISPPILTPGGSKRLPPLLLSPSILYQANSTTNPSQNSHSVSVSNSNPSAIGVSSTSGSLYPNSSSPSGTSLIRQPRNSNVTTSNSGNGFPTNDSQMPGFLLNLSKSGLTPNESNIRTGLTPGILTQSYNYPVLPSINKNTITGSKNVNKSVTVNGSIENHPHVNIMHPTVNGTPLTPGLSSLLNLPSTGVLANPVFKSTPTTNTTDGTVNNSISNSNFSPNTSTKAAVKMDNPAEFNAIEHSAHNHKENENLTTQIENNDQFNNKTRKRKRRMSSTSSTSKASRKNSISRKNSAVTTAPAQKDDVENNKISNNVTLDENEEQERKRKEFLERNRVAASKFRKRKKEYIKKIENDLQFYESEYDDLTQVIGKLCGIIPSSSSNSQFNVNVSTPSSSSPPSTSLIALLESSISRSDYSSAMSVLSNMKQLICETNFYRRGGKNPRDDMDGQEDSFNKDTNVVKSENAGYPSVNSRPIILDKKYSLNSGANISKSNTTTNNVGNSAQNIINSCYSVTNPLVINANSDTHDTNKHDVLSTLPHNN
Experiment: PBM E-score (8-mer binding enrichment) (E-score (-0.5 to 0.5)); higher = stronger / more preferred TF binding; most listed sequences are background and not binding sites
Details: protein concentration: 200 nM; construct: GST-full length
Procedure, shortened: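 Full-length yeast transcription factors or their DNA-binding domains, GST-tagged and expressed with PURExpress, were applied at about 100-200 nM to universal all-10-mer Agilent arrays. These arrays had been made double-stranded by primer extension on fresh or once-stripped slides. Detection used fluorescent anti-GST, normalisation used masliner, and E-scores for ungapped eight-base words pooled with reverse complements came from the Universal PBM Analysis Suite.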

| Sequence | PBM E-score |
| --- | --- |
| ATAGTGCG | 0.126 |
| AACACGGA | 0.0312 |
| CAAAAATG | -0.0501 |
| CCTGACGC | 0.0655 |
| AAAGGTTG | -0.231 |
| AGGACAGG | -0.345 |
| CTATTTGA | 0.175 |
| AACTAGGA | -0.0576 |
| GAAGATAC | 0.131 |
| TAATGTCA | 0.214 |
| CCCACCCA | -0.00995 |
| AGTATTAT | 0.1 |
| AACTATGG | -0.192 |
| GCTAGGCC | -0.184 |
| AGAACTTC | -0.185 |
| ACCAGAGA | -0.163 |
| GTTAACGA | 0.0836 |
| CAGCTGGA | -0.103 |
| ACTGGACG | 0.109 |
| GCACTAAA | -0.0221 |
| GGCGAATA | -0.0732 |
| GGAGTCAA | -0.134 |
| AGATTGTC | -0.0423 |
| CTCGTTAC | 0.107 |
| TATGTCGA | 0.193 |

| Sequence | PBM E-score |
| --- | --- |
| CTCTGCGA | 0.00177 |
| AAATACGT | 0.463 |
| AACGAACG | 0.0486 |
| CTTGTCTA | 0.127 |
| AAGGCTCC | -0.295 |
| CCGACCCC | -0.155 |
| AGATCCCA | -0.104 |
| AGACGCTC | -0.268 |
| CTATCACC | -0.232 |
| CTTCTTGA | 0.0494 |
| CTTTACAA | 0.0299 |
| CTCAAGGA | -0.267 |
| AAGCGCTG | -0.0191 |
| AAGACCTC | -0.31 |
| TCAGCCGA | -0.104 |
| ACCCATAG | -0.25 |
| CCTCGCTA | -0.169 |
| CTGTTACA | -0.119 |
| GCAGGACA | -0.165 |
| ACCCGTTA | -0.127 |
| AAATAAGA | 0.124 |
| ATATAAGA | 0.274 |
| CCGCTCGC | -0.151 |
| CAATGCTA | -0.027 |
| CGTTTGCA | 0.182 |

| Sequence | PBM E-score |
| --- | --- |
| CTGTCGAA | -0.12 |
| CAAGGAAC | -0.138 |
| AGGCCAAA | -0.106 |
| AAGATTCG | 0.203 |
| GCTTAAGA | -0.00071 |
| AAAGCAAG | -0.0433 |
| AGTGATAA | 0.143 |
| AGCTAACG | 0.173 |
| TCAGGCAA | -0.129 |
| ATGCAGAC | -0.106 |
| CCCATGAA | -0.16 |
| CGGAGCTC | -0.233 |
| CTTCCAAA | 0.0466 |
| ACTTAGAT | 0.176 |
| GGACATAC | -0.0701 |
| AACAAATG | 0.237 |
| CCTTTTAC | -0.0204 |
| AGTAAAAC | 0.0445 |
| ACTGCCGC | -0.224 |
| CGTGCATC | 0.193 |
| CCCGCGAA | -0.16 |
| ATCGTAAG | 0.234 |
| GAAGATCC | -0.307 |
| AACGTTTG | 0.133 |
| CAGCTAGA | -0.0116 |

| Sequence | PBM E-score |
| --- | --- |
| AGATAACA | 0.145 |
| GTGCTCTA | -0.084 |
| CATAGAAC | -0.15 |
| CCGATACA | -0.0168 |
| CCCTCTGC | -0.34 |
| ATGCTGCG | -0.165 |
| AATGGCGG | -0.3 |
| CTCAAACC | -0.225 |
| AATCGGTC | -0.239 |
| CCATCTTA | 0.00443 |
| CACAGTAG | -0.0266 |
| CGAGGGAG | -0.369 |
| ACTAGTTG | -0.195 |
| GTACAGAC | 0.086 |
| AGTCTGCA | -0.232 |
| AAGTCTGG | -0.0103 |
| ATCATATG | 0.247 |
| CAGCAGCA | -0.172 |
| GATAACGA | 0.268 |
| GACTCGCA | -0.153 |
| ATGTAGAG | 0.0634 |
| ATCCATCG | -0.193 |
| CACAATGA | 0.167 |
| CAAAATTG | 0.0476 |
| CCCTCTAG | -0.109 |

| Sequence | PBM E-score |
| --- | --- |
| AGTCGGGA | -0.184 |
| AACCCGGC | -0.161 |
| GACTGCGC | -0.199 |
| TAGGGGCA | -0.101 |
| CTTTAAAC | -0.0658 |
| CGGATGAA | 0.0556 |
| GCTCTTCA | -0.356 |
| CATACTCA | 0.0384 |
| ATAAAACA | 0.221 |
| ACCTCGTA | 0.13 |
| CGCCACAC | 0.0843 |
| CCATAGCA | -0.107 |
| AGAGAAGG | -0.386 |
| ATTGAATC | -0.00848 |
| ATTTCACG | 0.0368 |
| AGACTAAG | 0.052 |
| GAGCTTGA | -0.156 |
| CGGAACCC | -0.252 |
| ACCTGCTA | -0.0628 |
| AGTTGAGG | -0.166 |
| ACTTATCC | 0.0171 |
| AAGGTTTC | -0.132 |
| GCCTGGAC | -0.194 |
| ACCTACCA | -0.118 |
| CGAGAGGC | -0.26 |

| Sequence | PBM E-score |
| --- | --- |
| AGGTCGCG | -0.153 |
| GCGTCTAA | -0.00774 |
| AAATACTC | 0.065 |
| ATGGCGGG | -0.242 |
| CGCTAGAA | -0.147 |
| CGGCAGCA | -0.195 |
| GCGCTTAA | -0.00633 |
| CGACTTCC | 0.00337 |
| TCGTGGCA | 0.0698 |
| GCCTTTCA | -0.117 |
| GGAGTCAC | -0.0997 |
| GTCCGCAA | -0.112 |
| ATGGCAGG | -0.281 |
| AGACAAGG | -0.211 |
| ACTATGAA | 0.11 |
| ATGGGCGA | -0.123 |
| CGCAGCTC | -0.0758 |
| CCTATTGC | -0.142 |
| AAATACCT | 0.0741 |
| GCATGGGA | -0.192 |
| AAATTCTC | -0.0401 |
| CGACCTGA | -0.0964 |
| GATCCCAA | -0.134 |
| ACACTGGA | -0.0273 |
| GCTGTATA | 0.0331 |

| Sequence | PBM E-score |
| --- | --- |
| AACGCCGT | -0.0754 |
| AATCAGCG | 0.14 |
| GACATACA | 0.277 |
| ACTAACTG | 0.0013 |
| CATGAGGG | -0.0274 |
| GCCAGAGA | -0.105 |
| CATTTGTC | 0.0524 |
| GTAGAGGA | -0.194 |
| ACCCTCGG | -0.289 |
| CATACTGA | 0.175 |
| CCCTTGAG | -0.24 |
| GCCACTGA | -0.031 |
| ATAACTTC | 0.0712 |
| GAAGGTTA | 0.0047 |
| AAGGAGGA | -0.0677 |
| GAGCCTGA | -0.16 |
| GGAAAATA | 0.074 |
| CCATAACG | 0.296 |
| AACGTCTA | 0.239 |
| ACCGCGAT | 0.106 |
| AGGCGATC | 0.105 |
| AAGATCCC | -0.041 |
